Data: PubChem BioAssay AID504466 (National Center for Advancing Translational Sciences (NCATS), 2011)
Among all 330,000 compounds or so, about 4,200 (1.3%) were called active. This list was built around the results that the source calls inconclusive (neither active nor inactive); the mix of calls is not that of the screen. Calls follow the shape of the dose curve; as a rule, active = well fitted activation curve with a large enough effect; inconclusive = small, poorly fitted or top-dose-only effect; inactive = no such curve, though single readings can be large or run the other way. Potencies beside an inconclusive call are fits to weak or partial responses and may not hold up.
Potency is read from the fitted curve at half-maximal effect; tags tell the direction and shape of the fitted curve.

Test: qHTS screen for small molecules that induce genotoxicity in human embryonic kidney (HEK293T) cells expressing luciferase-tagged ELG1; also: nearly all actives have a fitted effect of over 60% in size
Conditions: HEK293T ELG1-luciferase reporter, luminescence, 16 h; series mostly up to 46 µM
Summary of the method: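 Screening used a luciferase reporter fused to human ELG1 in HEK293T cells. Luminescence was read on a CCD plate imager after 16 hr exposure and 30 min ONE-Glo incubation.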
In the case of `Cc1ccc2c(c1)C(=O)C(=O)N2CCOc1ccccc1`, the Potency is reported as inconclusive: 18.3 µM [activator, single point].
For `O=C(CCN1CCC(c2ccccc2)C1)c1ccc2c(c1)OCCO2` (stereo not drawn), the Potency was “inactive”.
With `CCn1c(SCC(=O)Nc2ccccc2OC)nc2ccccc2c1=O` the Potency was “inactive”.
For `COc1cccc(OCC(=O)NCC2CCCO2)c1` (stereo not drawn), the Potency was “inactive”.
With `O=C(Nc1cccc(S(=O)(=O)c2cccc(NC(=O)C3CC3)c2)c1)C1CC1` the Potency was inconclusive: 29.1 µM [activator, single point].
With `CCOC(=O)c1sc(N/N=C/c2ccc(N(C)C)cc2)nc1C` the Potency was “inactive”.
For `Cc1cccc2nc(COc3ccc(Cl)c4cccnc34)cn12`, the Potency was inconclusive: 23.1 µM [activator, partial curve, poor fit].
For `Cc1ccc(/C=C/c2nc3ccccc3c(=O)[nH]2)cc1`, the Potency was inconclusive: 0.326 µM [activator, full curve].
For `CCN1CCc2c(sc(NC(=S)NC(=O)c3ccccc3)c2C#N)C1`, the Potency was “inactive”.
In the case of `CCC1CCc2c(sc3nc(SCC(=O)NCc4ccco4)n(-c4ccccc4)c(=O)c23)C1` (stereo not drawn), the Potency is reported as inconclusive: 29.1 µM [activator, single point].
With `CCc1cc2ccc(C)c(C)c2nc1SCC(=O)Nc1cc(C)on1` the Potency was inconclusive: 5.8 µM [activator, partial curve, poor fit].
For `O=[N+]([O-])c1ccc(-n2cc(-c3ccccc3)nn2)cc1`, the Potency was inconclusive: 11.6 µM [activator, partial curve, poor fit].
With `CCOc1ccc(N2C(=O)CC(NNc3nc4ccccc4s3)C2=O)cc1` (stereo not drawn) the Potency was “inactive”.
With `Cn1c(COc2ccc(F)cc2)nc2ccccc21` the Potency was inconclusive: 14.6 µM [activator, partial curve].
In the case of `O=C(/C=C/c1ccccc1)NC(=S)NNC(=O)c1cnccn1`, the Potency is reported as inconclusive: 29.1 µM [activator, partial curve, poor fit].
With `COc1ccc(NC(=O)C2CCN(S(=O)(=O)c3cccs3)CC2)cc1OC` the Potency was “inactive”.
In the case of `COc1ccc(C)c2sc(N(CCCN(C)C)C(=O)c3ccc4c(c3)OCCO4)nc12`, the Potency is reported as inconclusive: 2.06 µM [activator, partial curve, poor fit].
In the case of `O=C(Nc1ccccc1F)c1ccc2snnc2c1`, the Potency is reported as inconclusive: 8.2 µM [activator, partial curve, poor fit].
With `O=C(CSc1nnc(-c2ccccc2Br)o1)N1CCOCC1` the Potency was inconclusive: 5.01 µM [activator, partial curve].
For `O=C(NOCc1ccccc1)c1ccc(Cl)cc1`, the Potency was inconclusive: 2.59 µM [activator, partial curve].
For `CSCC(=O)N1CCC(n2nccc2NC(=O)CCCc2ccccc2)CC1`, the Potency was inconclusive: 18.3 µM [activator, partial curve, poor fit].
With `COC(=O)c1nc(NC(=S)NC(=O)c2cccs2)sc1C` the Potency was inconclusive: 18.3 µM [activator, partial curve, poor fit].
For `COc1cc(CCC(=O)Nc2ccc(Cl)c(C(F)(F)F)c2)cc(OC)c1OC`, the Potency was “inactive”.
In the case of `CSCCC(NC(=O)c1cccc([N+](=O)[O-])c1)c1nc2ccccc2[nH]1` (stereo not drawn), the Potency is reported as “inactive”.
With `CCOc1ccccc1NC(=O)CN1C(=O)NC(Cc2c[nH]c3ccccc23)C1=O` (stereo not drawn) the Potency was “inactive”.
In the case of `CCC(C)(C)NC(=O)CCCSc1nc2ccccc2s1`, the Potency is reported as “inactive”.
In the case of `N#C/C=C1\Sc2ccccc2C(=O)N1CC(=O)N1CCN(S(=O)(=O)c2ccccc2)CC1`, the Potency is reported as inconclusive: 13 µM [activator, partial curve].
In the case of `CC(=O)Cn1cnc2c(sc3nc(C)cc(C)c32)c1=O`, the Potency is reported as inconclusive: 20.6 µM [activator, partial curve, poor fit].
In the case of `CC(=O)c1c(C)[nH]c(C(=O)Nc2cccc(C)c2C)c1C`, the Potency is reported as “inactive”.
In the case of `CCOC(=O)c1sc(NC(=O)CSc2nnnn2-c2ccccc2)c(C(=O)OCC)c1C`, the Potency is reported as “inactive”.
With `C=CCNC(=O)c1ccccc1NC(=O)Nc1ccccc1` the Potency was “inactive”.
For `O=C(CSc1nnc(-c2ccccc2Cl)o1)Nc1ccccn1`, the Potency was inconclusive: 1.83 µM [activator, partial curve].
For `Oc1ccc(/C=N\Nc2nncc(-c3ccccc3)n2)cc1`, the Potency was inconclusive: 11.6 µM [activator, partial curve, poor fit].
For `C(=C\c1ccccc1)/C=N/Nc1nc2ccccc2[nH]1`, the Potency was active: 18.4 µM.
With `CC(=O)c1ccc(NC(=O)Nc2ccc(Cl)cc2)cc1` the Potency was active: 2.06 µM.
In the case of `O=C(Nc1ccc(Cl)c(Cl)c1)c1ccc2c(c1)OCO2`, the Potency is reported as active: 4.61 µM.
For `O=C(NNS(=O)(=O)c1cccc(Cl)c1)c1cc(-c2ccc(F)cc2)nc2ccccc12`, the Potency was “inactive”.
For `CCCc1ccc(S(=O)(=O)NCc2nnc(SC)n2C)cc1`, the Potency was “inactive”.
With `CCOC(=O)c1ccc(NC(=O)CSc2nccn2C)cc1` the Potency was inconclusive: 23.1 µM [activator, single point].
With `Cc1cc(/C=C2/C(=N)N3C(=NC2=O)SN=C3S(C)(=O)=O)c(C)n1-c1ccc(F)cc1` the Potency was inconclusive: 16.4 µM [activator, partial curve, poor fit].
With `O=C1c2ccccc2S(=O)(=O)N1CC1CC(c2ccc(Cl)cc2)=NO1` (stereo not drawn) the Potency was active: 16.4 µM.
In the case of `O=C(Nc1ccc(N2CCOCC2)cc1)c1ccc(S(=O)(=O)NCc2ccco2)cc1`, the Potency is reported as inconclusive: 18.3 µM [activator, single point].
For `CCn1cc([N+](=O)[O-])c(C(=O)Nc2ccn(Cc3ccccc3)n2)n1`, the Potency was “inactive”.
For `CC(=O)c1ccc(NC(=O)c2ccc3nc(C)sc3c2)cc1`, the Potency was inconclusive: 18.3 µM [activator, single point].
For `Cc1cc(=O)n2nc(-c3ccc(C(F)(F)F)cc3)sc2n1`, the Potency was active: 3.98 µM.
In the case of `CC(C)c1ccc2c(c1)C1Cc3ccccc3C1N2` (stereo not drawn), the Potency is reported as inconclusive: 9.2 µM [activator, partial curve].
With `O=c1nc(Nc2ccccc2)oc2ccccc12` the Potency was inconclusive: 10.3 µM [activator, partial curve].
In the case of `CC1CN(C(=O)c2cccc(COc3ccccc3Cl)c2)CC(C)O1` (stereo not drawn), the Potency is reported as inconclusive: 2.91 µM [activator, full curve, poor fit].
